This is an account of results in PubChem BioAssay AID485344 (National Center for Advancing Translational Sciences (NCATS), 2010).

The whole screen tested about 340,000 compounds, of which about 6,900 (2%) were called active. Rule as the data show it: active = inhibition above about 30%; inactive = below that, where a call was filed. The list shows a part of the results, in another mix than the full data. Where no call is shown, the source filed none.

The inhibition is the drop in the measured response relative to a control, in per cent.

This test has as its target D(2) dopamine receptor (Homo sapiens) (UniProt P14416). Nature of the test: HTS Assay for Allosteric Antagonists of the Human D2 Dopamine Receptor: Primary Screen for Antagonists. Also: 0% is about no effect. The conditions noted are these: HEK293 TREx D2 cells, calcium flux, dopamine EC80; at 10 µM; stronger effect = higher value. In short, it runs like this: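 Antagonism is scored as inhibition of an EC80 dopamine-evoked calcium signal in a force-coupled, tetracycline-inducible HEK293 T-REx D2 line, with compound present 180 s before agonist.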
Sequence of UniProt P14416 (P14416 whole entry, looked up): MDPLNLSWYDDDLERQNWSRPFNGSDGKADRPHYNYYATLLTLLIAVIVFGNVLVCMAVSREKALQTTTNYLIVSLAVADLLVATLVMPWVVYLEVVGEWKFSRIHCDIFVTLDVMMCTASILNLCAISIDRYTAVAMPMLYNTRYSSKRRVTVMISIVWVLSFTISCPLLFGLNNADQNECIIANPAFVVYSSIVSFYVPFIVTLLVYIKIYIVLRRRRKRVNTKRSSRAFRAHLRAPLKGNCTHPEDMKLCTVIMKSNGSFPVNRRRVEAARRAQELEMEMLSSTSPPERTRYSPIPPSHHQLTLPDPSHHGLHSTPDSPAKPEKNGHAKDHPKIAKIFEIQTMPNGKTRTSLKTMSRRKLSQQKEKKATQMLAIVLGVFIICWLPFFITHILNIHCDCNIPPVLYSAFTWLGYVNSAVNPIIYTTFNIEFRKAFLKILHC
Turning to `COc1ccc(C(=O)c2cn(Cc3cccc(C)c3)c3cc4c(cc3c2=O)OCCO4)cc1OC`, the inhibition is -2.07%. With `CCc1ccc(NC(=O)CN2C(=O)CCSc3ccc(S(=O)(=O)N4CCCC4)cc32)cc1` the figure was 2.07%. As to `COc1ccc(CCNC(=O)Cn2ccc3cc(S(=O)(=O)N4CCCCC4)ccc32)cc1OC`, the inhibition is 7.29%. `CCN(CC)CCNC(=O)Cn1ncc2c3ccccc3n(Cc3ccccc3C)c2c1=O`: the inhibition is -0.785%. For the molecule `Cc1ccc(N(C(=O)c2cccc(C)c2)S(=O)(=O)c2ccc(Cl)cc2)cc1`, the inhibition was found to be 4.42%.

Take `Cn1nnnc1SCCCNCc1ccccc1OCc1ccccc1F`: the inhibition was -25.5%. In the case of `COC(=O)c1ccccc1NC(=O)c1cc(=O)c2ccc(C)c(C)c2o1`, the inhibition came to 13.2%. For `COc1ccc(S(=O)(=O)NCCc2cn3ccsc3n2)cc1`, the inhibition is -14.1%.

In the case of `CC(=O)c1ccc(NC(=O)c2ccc(CN3C(=O)CCn4nc(C)cc43)cc2)cc1`, the inhibition was found to be 6.26%. In the case of `O=S(=O)(Nc1ccc(Br)cc1)c1ccc2nc(-c3ccccc3)[nH]c2c1`, the inhibition stood at 5.3%.

With `Cc1ccc(CCNC(=O)CN2CCN(Cc3ccc(Cl)cc3)C2=O)cc1`, the inhibition stood at 4.09%.

`O=C(CCC1N=C2c3ccccc3N=C(SCc3cccc(F)c3)N2C1=O)NCc1ccc(F)cc1` (stereo unspecified): the inhibition is -24.4%.

With `O=C(Nc1ccccc1Br)N1CCN2CCCCC2C1` (stereo unspecified), the inhibition was -17.4%. For the molecule `c1ccc(-c2ccccc2OCCCN2CCCCC2)cc1`, the inhibition is active: 43.1%.

Regarding `CCc1ccc(NC(=O)Cn2nnc(C(=O)Nc3cc(C)ccc3OC)c2N)cc1`, the inhibition was -0.0426%. `COc1ccccc1CNC(=O)CN1C(=O)CCCc2ccccc21`: the inhibition amounted to 5.21%. Consider `CCc1ccc(NC(=O)c2oc3c(c2C)-c2[nH]ncc2CC3)cc1`, for which the inhibition is -17.9%.

Consider `CCc1ccc(NC(=O)c2ccc3c(c2)c(C)c(C)n3Cc2ccccc2)cc1`, for which the inhibition amounted to 1.98%. For `CCCCOc1ccc(C2c3c(oc4ccccc4c3=O)C(=O)N2c2nc(C)c(C(=O)OCC)s2)cc1OC` (stereo unspecified), the inhibition is -15.1%.

Regarding `CCOC(=O)c1cccc(Nc2cc(C)nc(C)n2)c1`, the inhibition came to 3.08%.

For `CCOCCCn1c(=N)c(C(=O)NC2CCCC2)cc2c(=O)n3cccc(C)c3nc21`, the inhibition was 0.944%. With `Cc1nnc2c3ccccc3nc(N3CCN(c4cccc(Cl)c4)CC3)n12` the figure was -7.52%; with `Cc1cccc(-n2ncc3c(Nc4c(C)cc(C)cc4C)ncnc32)c1`, -11.1%. With `Cc1noc(Cn2c(=O)c3ccccc3n(CC(=O)Nc3ccccc3C(F)(F)F)c2=O)n1` the figure was -5.21%.

Consider `O=C(CCc1ccc(Oc2cc([N+](=O)[O-])cc([N+](=O)[O-])c2)cc1)N1CCCCCC1`, for which the inhibition is active: 37.5%. Consider `Cc1ccc(NC(=O)CSc2nnc(C)c(=O)[nH]2)cc1`, for which the inhibition was -1.52%.

With `CC1=C(c2ccc(Cl)cc2)S(=O)(=O)NC1=NCc1ccc(C)cc1`, the inhibition is -17%. With `O=C(CSc1nc2c(oc3ccccc32)c(=O)[nH]1)Nc1cccc(Cl)c1` the figure was -6.21%; with `CN(C)c1cccc(C(=O)Nc2ccc(-c3nc4ccccc4s3)cc2)c1`, 20.2%. Consider `CCOC(=O)c1cccc(NC(=O)CCNS(=O)(=O)c2cccc3nonc23)c1`, for which the inhibition is -0.121%. Turning to `COc1ccc(OCCCN2CCc3ccccc3C2)cc1`, the inhibition was active: 71.9%. Regarding `CCOC(=O)c1ccc(NC(=O)c2cc3c(n(-c4ccc(C)cc4)c2=O)CC(C)(C)CC3=O)cc1`, the inhibition was -6.57%. Take `Cc1ccc(CCNC(=O)c2ccc(CSCc3ccc(C)cc3)o2)cc1`: the inhibition was -1.26%. On to `COc1ccc(-c2nc3scc(CCNS(=O)(=O)c4cccc(C(C)=O)c4)n3n2)cc1`, for which the inhibition is -5.77%. Consider `Cc1cc2ccccc2n1-c1ccc(C(=O)N2CCC(C(=O)NCc3ccc(F)cc3)CC2)s1`, for which the inhibition was determined as 12.4%. Regarding `COC(=O)c1c(SCC(=O)Nc2ccccc2OC)[nH]c2ccccc2c1=O`, the inhibition is -6.47%.

With `COc1ccc(Oc2nc3c(c(=O)n(Cc4ccccc4Cl)c(=O)n3C)n2C)cc1`, the inhibition was 3.87%.

As to `COc1ccc(CNC(=O)Cn2ccc3cc(S(=O)(=O)N4CCCCCC4)ccc32)c(OC)c1`, the inhibition is -4.51%. For the molecule `Cc1ccc(N2CC(NC(=O)/C=C\c3ccc4c(c3)OCO4)CC2=O)cc1` (stereo unspecified), the inhibition is -9.21%.

`O=C(C1CC1)N1CCc2cc(Br)cc(S(=O)(=O)N3CCN(c4ccccc4F)CC3)c21`: the inhibition was 10.3%. With `COc1cccc(NC(=O)c2ccc(CNS(=O)(=O)c3ccc4c(c3)C(C)(C)C(=O)N4C)cc2)c1` the figure was 23.6%; with `Cc1c(Cl)cccc1NC(=O)CSc1cc(-c2ccccc2)ncn1`, 13.6%. Consider `Cc1nc(SCC(=O)Nc2ccc(F)cc2)c(C#N)c(C)c1CC(=O)c1ccc(Br)cc1`, for which the inhibition is active: 44.1%. Turning to `Cc1ccc(NC(=O)C2CCN(c3nn4c(=O)cc(C)nc4s3)CC2)cc1`, the inhibition stood at 3.99%. For `O=C(/C=C/c1ccco1)Nc1ccc(Cl)c(-c2nc3cc(Cl)ccc3o2)c1`, the inhibition was 1.02%.

As to `Cc1ccc(-c2nnc(Nc3ccc(O)cc3)c3ccccc23)cc1S(=O)(=O)NCC1CCCO1` (stereo unspecified), the inhibition is -2.36%. Take `O=C1Nc2cc(Cl)ccc2Oc2cc(Oc3ccccc3)ccc21`: the inhibition is -10.1%. Take `COc1ccc(Cn2ccc3nc(C)c(C(=O)Nc4ccc(OC)cc4OC)cc3c2=O)cc1`: the inhibition is -1.53%.

On to `Cc1cc(C)c(S(=O)(=O)Nc2cccc(-c3cn4ccccc4n3)c2)c(C)c1`, for which the inhibition was 3.79%.

Consider `Cc1ccc(NC(=O)Cn2c(=O)n(CCc3ccccc3)c(=O)c3c4c(sc32)CCCC4)cc1C`, for which the inhibition is -26.9%.

For `Cc1ccc(C)c(CN2C(=O)c3ccccc3S(=O)c3ccc(C(=O)NCc4ccco4)cc32)c1` (stereo unspecified), the inhibition was -3.41%.

As for `Cc1ccc(NC(=O)Cn2cc(S(=O)(=O)NC(C)C)c(S(=O)(=O)NC(C)C)c2)cc1Cl`, the inhibition is -0.55%.

As to `COc1ccc(N(C(=O)COc2ccc(Br)cc2)S(=O)(=O)c2ccc(C)cc2)cc1`, the inhibition was -7.89%.

In the case of `Cc1ccc(NC(=O)CCc2c(C)nn(-c3ccc(N4CCOCC4)nn3)c2C)cc1F`, the inhibition is 15.1%.

Consider `O=C(OCc1ccccc1Cl)c1ccc(-c2nnn(Cc3ccccc3Cl)n2)cc1`, for which the inhibition was -2.63%. In the case of `CCOC(=O)c1c(S(=O)(=O)N2CCCC(C(=O)Nc3ncccc3C)C2)c(C)n(C)c1C` (stereo unspecified), the inhibition was -6.06%. As to `COc1ccc(CCCc2nnc(SCC(=O)Nc3ccccc3F)o2)cc1C`, the inhibition came out at 16.4%. With `COc1cc(C(=O)NCc2ccc(OCCN(C)C)cc2)cc(OC)c1OC`, the inhibition was active: 72.2%. For `Cc1ccc(-n2ncc3c(N(CCO)Cc4ccccc4)ncnc32)cc1`, the inhibition was 20.8%.

For the molecule `COc1cccc(N(Cc2nnc3n2CCCCC3)C(=O)Nc2cccc(Cl)c2)c1`, the inhibition is -3.07%. For `CCOCCCNC(=O)CN1C(=O)c2c(c3ccccc3n2C)C1c1ccc(OC)cc1` (stereo unspecified), the inhibition worked out at 7.01%. As for `O=C(Cc1csc2nc(-c3ccccc3)cn12)NCc1ccc(F)cc1`, the inhibition is -8.63%. Then `CCOc1ccccc1NC(=O)N1CCCn2nc(C)cc21`, with 4.54%; and `Cc1c(OCC(=O)N[C@@H](CSCc2ccccc2)C(=O)O)ccc2c3c(c(=O)oc12)CCC3`, with active: 30.7%; and `Cc1ccc(CNC(=O)Cn2c(=O)n(-c3ccccc3)c(=O)c3c2c2cc(C)ccc2n3C)cc1`, with -8.11%. Regarding `CCCCN(C)CCNC(=O)Cn1ncc2c([nH]c3ccccc32)c1=O`, the inhibition was 12.3%.

Consider `Cc1ccc(NC(=O)CCSc2nc(-c3ccc4c(c3)OCO4)cc(C(F)(F)F)n2)cc1`, for which the inhibition was 1.06%. `COc1ccc(C2/C(=C(/O)c3ccc(S(=O)(=O)N4CCOCC4)cc3)C(=O)C(=O)N2CCN2CCOCC2)cc1` (stereo unspecified): the inhibition is active: 40.1%. For the molecule `CCOC(=O)CCN(c1ccccc1)S(=O)(=O)c1ccc2[nH]c(=O)ccc2c1`, the inhibition is -0.281%. `O=C(O)CCc1ccc(-c2ccccc2)n1-c1cccc(Br)c1`: the inhibition came out at 4.86%.

Regarding `COc1cc(/C=C/c2nc(C#N)c(NC(C)c3ccccc3)o2)cc(OC)c1OC` (stereo unspecified), the inhibition was 9.6%. With `CN(Cc1ccccc1)C(=O)c1cc2c(s1)-c1ccc(Cl)cc1SC2`, the inhibition was -3.29%. With `O=C(CCCCn1c(=O)c2ccccc2n(CC(=O)Nc2cccc(F)c2)c1=O)NCc1ccccc1Cl`, the inhibition was -3.55%. With `CCOc1ccc(CNC(=O)Cn2c(=O)c3cccn3c3ccc(F)cc32)cc1OC` the figure was 18.1%; with `Clc1ccc(CCNC(c2cccc(Cl)c2)c2nnc(-c3ccccc3)o2)cc1` (stereo unspecified), 11.4%. For `Cn1cc(S(=O)(=O)N2CCCCCC2)cc1C(=O)N1CCN(c2ccc(Cl)cc2)CC1`, the inhibition was -19.3%.

For the molecule `CCOC(=O)c1cc(-c2ccccc2)n(CCCC(=O)Nc2ccc(C)c(C)c2)c1C`, the inhibition was found to be 24.4%. On to `Cn1c(=O)c2c(ncn2CC(=O)Nc2cc(Cl)cc(Cl)c2)n(C)c1=O`, for which the inhibition was -2.55%. With `Cc1nn(C)c2c1c(C(F)(F)F)cc(=O)n2C(C)C(=O)N1CCN(c2ccccc2)CC1` (stereo unspecified), the inhibition was 9.74%. In the case of `CCOC(=O)c1c(C)oc2ncnc(N3CCN(c4cccc(Cl)c4)CC3)c12`, the inhibition was found to be 8.4%. As for `CCOC(=O)c1c(C)[nH]c(C)c1S(=O)(=O)N1CCN(c2ccccc2OC)CC1`, the inhibition is -3.19%.

In the case of `CC1=C(C(=O)Nc2ccccc2)C(c2ccccc2Cl)n2ncc(C(=O)Nc3cccc(C)c3)c2N1` (stereo unspecified), the inhibition stood at 3.01%. `COc1ccc(Cl)cc1NC(=O)CSc1nc2ccccc2nc1N1CCCCC1`: the inhibition worked out at 5.44%. Then `COc1ccc(CCC(=O)NCc2nc3cccnc3n2Cc2ccc(OC)cc2)cc1`, with 20.2%. In the case of `CCOC(=O)c1c(NC(=O)CS(=O)(=O)c2ccc(Cl)cc2)sc2c1CCCC2`, the inhibition is -1.89%. Then `Cc1ccc(C)c(NC(=O)Cn2nnc(C(=O)NCc3ccco3)c2N)c1`, with 15.3%. With `CNC(=O)C1CCN(C(=O)N2CC(C)Oc3ccc(C)cc32)CC1` (stereo unspecified), the inhibition was -23%. Consider `COc1ccc(-c2cc(C(=O)OCC(=O)c3cccc(OC)c3)c3cccc(Cl)c3n2)cc1`, for which the inhibition was -3.83%.

For the molecule `COc1ccc(NC(=O)C2CCN(c3nc(-c4ccc(OC)c(OC)c4)no3)CC2)cc1Cl`, the inhibition worked out at 7.42%. Take `Cc1ccccc1CNC(=O)C1CCCN(c2nnc(-n3c(C)ccc3C)s2)C1` (stereo unspecified): the inhibition was -1.67%. As to `COc1ccccc1N(C)C(=O)Cn1c(=O)oc2cc(S(=O)(=O)N3CCCC3)ccc21`, the inhibition worked out at 7.96%. Then `CCc1c(C)nc2nncn2c1Nc1cccc(C)c1`, with -6.44%.

As to `COc1ccc(-c2nc(SCC(=O)Nc3cccc(C(C)=O)c3)n[nH]2)cc1`, the inhibition amounted to 20.8%. Then `Fc1ccc(-c2noc3ncnc(N4CCCCC4)c23)cc1`, with -3.23%. With `COc1ccc(Cc2nc3ccc(C(=O)NCc4cc(Br)ccc4OC)cc3o2)cc1` the figure was -2.3%; with `O=C(Cc1ccccc1)Nc1cc(-c2nc3cc(Cl)ccc3o2)ccc1Cl`, -1.54%.
